This passage reports binding signal results from paper PMC12136788.

T1: UNK ZnF1-3 (human, UniProt Q9C0B0 31-174)
T1 sequence: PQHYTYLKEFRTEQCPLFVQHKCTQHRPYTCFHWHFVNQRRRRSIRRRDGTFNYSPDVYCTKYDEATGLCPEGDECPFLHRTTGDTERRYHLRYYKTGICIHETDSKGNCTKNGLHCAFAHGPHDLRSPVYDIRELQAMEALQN

B1: chr1:39494564:39494565:+_ENSG00000168653_ENST00000372967|hu_hu|hu_hu_hu_mus_True|38_68 (ssRNA)
RNA: GGGAGUUCUACAGUCCGACGAUCAUGCAUUCGCCUCAUCGUUUUGUACCGAAGCAAGCACUCUUCGAAAUCAUCAUACUCUAUCUUGCACUCCUUUUCUGCCCGAGUCCCACCGAUCCCGUGUGCACACUCUAUCCACUCUUUCAACAGAGGAUUGAGCAUCA
B2: chr2:42472670:42472671:+_ENSG00000143924_ENST00000318522|hu_mus|motif|central (ssRNA)
RNA: GGGAGUUCUACAGUCCGACGAUCCGUGACUCAAGAGCUGAGAGGCGGUCUUGAACGUCAGAGGUACUUGCAGCAGAAAUACGGUCAUCGAGGCUGCCGGCGAAACCGUCCAUCUUGCGGGGACCGCGCCGGGCUCGGGGCUCACAACAGAGGAUUGAGCAUCA
B3: chr9:104324587:104324588:+_ENSG00000155827_ENST00000389120|hu_hu|FALSE|FALSE (ssRNA)
RNA: GGGAGUUCUACAGUCCGACGAUCUUUGCGCUGGCGGGUGUCAUAGCGUGUCUUCACACACUCAAAGCAGAAGACAUGAAAACACUUAGUAAGAACAGCAUCCUUUUUACGCAUGUUACAGCACGGACAGGUCAAGCGUGCCUUCAACAGAGGAUUGAGCAUCA
B4: chr4:95585135:95585136:+_ENSG00000163110_ENST00000317968|hu_hu|FALSE|FALSE (ssRNA)
RNA: GGGAGUUCUACAGUCCGACGAUCCUUACACAGGGGCUUGUCCUUCUUGGAGAAAAAGGUCUGACCUUCCAAACUUUCACAACACACUGAGCAUACAAAGCAAGUGUCAUGCCAGGUGUAGCCCAGAGCUUCCAGGAACAUGUCCAACAGAGGAUUGAGCAUCA
B5: chrX:153986339:153986340:-_ENSMUSG00000046873_ENSMUST00000058098|mus_mus|motif|central (ssRNA)
RNA: GGGAGUUCUACAGUCCGACGAUCCACCAGGGACAUAAGACAUUCCAAGCUUUACUAUGUCAACAUAUAUUUACAGUAACGGUUCGACAAUCCUUUUUACAGCUUAAAUAGAAGCAUGCUUUUCUAGCCAUAAAUAACACUAAUCAACAGAGGAUUGAGCAUCA
B6: chr12:55961440:55961441:-_ENSMUSG00000062929_ENSMUST00000078124|mus_hu|motif|central (ssRNA)
RNA: GGGAGUUCUACAGUCCGACGAUCGAUAUUCAAAAUAUCUUUAGUGUUGCAGGACUCACAUGGUAAACAUAAAACUCCGGCACUUAUUCAGUAGUGUACACUCAAUGGAAAACAAAAAGGCAUUAAUAACAGCUAUUUCUUUUACAACAGAGGAUUGAGCAUCA
B7: chr5:40834624:40834625:-_ENSG00000145592_ENST00000508493|hu_mus|FALSE|FALSE (ssRNA)
RNA: GGGAGUUCUACAGUCCGACGAUCGUUAUACUUCCUCUUGCGCUUGGCAGGGUAGCCACACUUGCCACAAGUCGACUUCUGAAGGUGGUAGGCCUUGGAGCCACAGCGGCGGCACAGCGUGUGCGUCUUGUUGCGACGCUUACCCAACAGAGGAUUGAGCAUCA
B8: chr15:43486971:43486972:+_ENSG00000166946_ENST00000300213|hu_hu|motif|central (ssRNA)
RNA: GGGAGUUCUACAGUCCGACGAUCGAGCUCCUUGAUUCUAUUCAUGCAAUGAUCAAUGGCAUUAAUAAGUAAAGGGAUCCAACGGUCUUCUGGCUGAGGGGUCACAUGACUUGCUUUUGUAAUUUCAAGUGCCUUCUUUAAAACCAACAGAGGAUUGAGCAUCA
B9: chr5:128440902:128440903:+_ENSG00000066583_ENST00000173527|hu_mus|hu_hu_hu_mus_True|58_58 (ssRNA)
RNA: GGGAGUUCUACAGUCCGACGAUCUUGAACGGUGCUGCCAAGUCCUUUGGGGUAUUGUUCCGUUAUGAUAACUGGAAUUCCUAAAAUCCGAGCUCCUUGCAACAGUCUCUGUCCCACACUAAUGAUGUCCCCAAAGUAUUUGAUCAACAGAGGAUUGAGCAUCA
B10: chr11:46765198:46765199:-_ENSG00000175216_ENST00000415402|hu_hu|motif|central (ssRNA)
RNA: GGGAGUUCUACAGUCCGACGAUCACAGAAUACAGUGACCCUUCAGGGCGACAGAGAAGAGCUCACAAACUGAAAGGAAAACGGUUAAAGAGUUUCUAAUAUUAACUAUUAAAAAGCUAGGAAAGAUUAGGACAAUUUUACAAACAACAGAGGAUUGAGCAUCA
B11: 229611474_229613458_1793_CDS_ENSG00000069248_ENST00000261396|human|control|control (ssRNA)
RNA: GGGAGUUCUACAGUCCGACGAUCUGCUUCCUCAGGGACAGACUCAGCCCACCGUGGGUCAGAUGCUGGGUAGUCAUCCAUCAGGUCUACACUGAUUUGGGUAACUGCCCUGUCUAGUUCAGAAUCAGAAUCCAAAUCAGAGUGCAACAGAGGAUUGAGCAUCA
B12: 165749694_165756912_2094_CDS_ENSG00000112541_ENST00000354448|human|control|control (ssRNA)
RNA: GGGAGUUCUACAGUCCGACGAUCCCCAAGCUGGCCUUGGGGGACUUCAUCCUUCUUGUCUCUGUCCAUCAUAGGAAUAGGCUGUAUUCCCAAUUUCUUCAUUUCAUCACCCUCAGCCCAGAAUUCUGCAUAUAUAUCAUUUGCCAACAGAGGAUUGAGCAUCA
B13: chr9:35067926:35067927:-_ENSG00000165280_ENST00000358901|hu_mus|FALSE|FALSE (ssRNA)
RNA: GGGAGUUCUACAGUCCGACGAUCUGGCUGGAUGCUGAUGACAUCUCCUAGGCGAACUCGGAGGUUAUUCCGAACAACUCUAUUCAUUCGAAUCUUCUCAUCAGAACACGUGUCAUCAGAAAGAACAAUGCAUACAGCUUCCCGCAACAGAGGAUUGAGCAUCA
B14: chrX:20248820:20248821:+_ENSMUSG00000001924_ENSMUST00000001989|mus_mus|mus_mus_mus_hu_True|8_98 (ssRNA)
RNA: GGGAGUUCUACAGUCCGACGAUCGGCGAAGUCCGUCAUCACAAAGUCAGGUUCUGCCAGUGAGGCCACCAAGGAUUUAAAGCUAAUCUUCUUAGGUACUUUGACCUGACUGACGAUGCCUCCACGGAUGUAGUCAGAGAAGUUCAACAGAGGAUUGAGCAUCA
B15: chr1:174052150:174052151:+_ENSMUSG00000026553_ENSMUST00000135192|mus_hu|FALSE|FALSE (ssRNA)
RNA: GGGAGUUCUACAGUCCGACGAUCUCCUUUCUAGUUGACAGGAAAGAAAGCUGCUGUGGGGAAAGGAGGGAUAAAUACUGAAGGGAUUUACUAAACAAAUGUCCAUCACAGAGUUUUCCUUUUUUUUUUUUUUGAGACAGAGUCCAACAGAGGAUUGAGCAUCA
B16: chr1:46865451:46865452:-_ENSMUSG00000025986_ENSMUST00000027131|mus_mus|FALSE|FALSE (ssRNA)
RNA: GGGAGUUCUACAGUCCGACGAUCCUCAAAUUUUUGUUUUUGUCUUAAAAGGAAAAUCAGAGUAAGAGGAAAAGAACCAGAGAAGGGACUGAAUAAAAAUAUUUAAAAUGGAAAGGCCAGGGUUUGGCUCUUAUGUGGUUUUUCCAACAGAGGAUUGAGCAUCA
B17: chr7:54823571:54823572:-_ENSG00000132432_ENST00000352861|hu_mus|hu_hu_hu_mus_False|88_108 (ssRNA)
RNA: GGGAGUUCUACAGUCCGACGAUCUCCCAUUAUAGCAAAUCCUAUAGCUGUUGCCAUGGCAAUCUUCUGGAAUUCUUUUCUGUCGGGUUUGGUGCAUCUUUUAACCAGCCGAAUUGAGUCCUUUACAAACUGCCGGCUGGGCUCCAACAGAGGAUUGAGCAUCA
B18: chr6:38652254:38652255:-_ENSG00000124767_ENST00000373365|hu_hu|hu_hu_hu_mus_False|1_18 (ssRNA)
RNA: GGGAGUUCUACAGUCCGACGAUCCGAGAACUUCAUAGCAGGGAAGUCAAGCUUCUGCAGGAGGGUCAGUCCAAGAACCCUCGUAUAAAAAUCCAGGGACUUCUUAGGAUCCUUAAUUCGUAGCAUGGUUUGCUGCAAUAGAAACAACAGAGGAUUGAGCAUCA
B19: chr5:111714535:111714536:+_ENSMUSG00000033209_ENSMUST00000156290|mus_hu|FALSE|FALSE (ssRNA)
RNA: GGGAGUUCUACAGUCCGACGAUCAUCUGAGCUUGCUAGUUUUCCCACCUUUUGGAAGGGUGAGUUGGGGCUGGGAAUCAGAGUCAUUUUCACUGGAGAAUUUGGAGUGCUGAUGCUCCCUUUGGAGCUCACCGAGACUCUCAUCAACAGAGGAUUGAGCAUCA
B20: chr1:186286705:186286706:-_ENSG00000047410_ENST00000367478|hu_mus|motif|central (ssRNA)
RNA: GGGAGUUCUACAGUCCGACGAUCGAUGCUUGGACAGGCUCCUCUUCCUGCUGGCUAUCAAUUUCUAGGCCUGCCUCUGAACGGAUACCUUCAGACUCCGCCUCUACAAAUACUUCAUCUCCGUCGUCACCUGCUGCUGUUUCGCAACAGAGGAUUGAGCAUCA
B21: chr16:94690093:94690094:+_ENSMUSG00000040785_ENSMUST00000117648|mus_hu|mus_mus_mus_hu_True|1_108 (ssRNA)
RNA: GGGAGUUCUACAGUCCGACGAUCGGGGACUCCUGUGGGACACACAGCCUCGAUUCCAGGGGGAAAAAGUCUUAGUCGAUACUAAUUAAAAAGUGUUAAUGAUUUUUGAAAAUCAGAUUACAUCUAUAAAAGAUGAAAGCACUUCAACAGAGGAUUGAGCAUCA
B22: chr10:84137372:84137373:+_ENSMUSG00000034453_ENSMUST00000077175|mus_hu|FALSE|FALSE (ssRNA)
RNA: GGGAGUUCUACAGUCCGACGAUCGUAAGAGAGCUCUUCCCCACAUAAUAAAUUCACAUCUUCUACUCCCAAGUUACUGGCUAAUUUAACAAUGGGUCCAUCUUCCAUAUCAGUUGUGAUGUGUGUCAUAAGGGCCAAGUUUUUCAACAGAGGAUUGAGCAUCA

Some of the results follow.

The target of this experiment is T1, UNK ZnF1-3. Put plainly: nsRBNS (natural sequence RNA bind-n-seq); RBNS binding buffer (assumed for nsRBNS): 25 mM Tris pH 7.5, 150 mM KCl, 3 mM MgCl2, 0.01% Triton X-100, 500 ug/ml BSA, 20 U/ml SUPERase-In, 4 C; UNK is unkempt and MSI1 is Musashi-1; names of the RNAs are library labels; protein concentration not given here; high values mean tight binding.
In the case of B1, the binding signal stood at 0.749 enrichment R.

Molecule B2 showed a binding signal of 1.12 enrichment R.

B3 displayed a binding signal of 0.559 enrichment R.

In turn, B4 showed a binding signal of 1.21 enrichment R.

In the case of B5, the binding signal is 1.28 enrichment R.

For the molecule B6, the binding signal is 1.13 enrichment R.

B7: the binding signal was 0.51 enrichment R.

For B8, the binding signal stood at 1.05 enrichment R.

B9 showed a binding signal of 0.939 enrichment R.

B10 returned a binding signal of 2.09 enrichment R.

In turn, B11 displayed a binding signal of 0.879 enrichment R.

B12 returned a binding signal of 0.762 enrichment R.

Turning to B13, the binding signal is 0.8 enrichment R.

Take B14: the binding signal amounted to 0.908 enrichment R.

B15 gave a binding signal of 1.27 enrichment R.

B16 returned a binding signal of 2.62 enrichment R.

B17 gave a binding signal of 0.693 enrichment R.

Molecule B18 displayed a binding signal of 0.678 enrichment R.

Regarding B19, the binding signal is 0.903 enrichment R.

For the molecule B20, the binding signal came out at 0.899 enrichment R.

In the case of B21, the binding signal was determined as 1.17 enrichment R.

Molecule B22 returned a binding signal of 0.711 enrichment R.
